# Measured values published in patent publication US20160316790A1, “BETA-HINOKITIOL DERIVATIVES AND APPLICATIONS THEREOF IN PREPARATION OF ANIMAL ANTIBACTERIAL AGENTS AND ANTIBACTERIAL GROWTH PROMOTERS USED IN FEED” (GUANGZHOU INSIGHTER BIOTECHNOLOGY CO., LTD., priority 2013, published 2016).
# Test system: riemerella anatipestifer
# Test: Protection effect against attacking and infection of riemerella anatipestifer
# Settings: intramuscular
# Experimental: 100 16-day-old cherry valley ducks were randomly divided into 10 test groups according to table 8. Each duck was injected with riemerella anatipestifer of 5×10^7 CFU via intramuscular injection for the purpose of attacking and infection, and injected with the medicines via intramuscular injection simultaneously. Morbidity and death of the tested ducks were observed, and dead ducks were subject to autopsy to verify whether the death was caused by riemerella anatipestifer infection. The observation lasted for 7 days. All tested ducks were executed at the end of the test. Autopsy were performed to confirm the morbidity. The statistic results can be seen in table 8.
smiles,measurement,value
"CCCc1cccc(=O)c(O)c1 [IST_009_001, 2-hydroxy-4-propylcyclohepta-2,4,6-trienone]",protection of ducks against attacking and infection of riemerella anatipestifer (in words),could protect ducks against attacking and infection of riemerella anatipestifer
